Test results: the supplement of paper PMC6531468
Some of the results follow. These are enrichments in a pooled selection; single values are uncertain. Scores sum up all selected molecules that hold the word; the word was not tested alone.

Legend:
Assay in all cases: 6-mer SELEX enrichment z-score vs GST control; IMP3 is the RNA-binding protein IGF2BP3; higher = more enriched by binding
IMP3 RRM1-2 = conditions: construct: RRM1-2 (1-163); SELEX round: R2
Procedure: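 SELEX-seq with GST-tagged IMP3 RRM1-2 (Met1-Asn163) and an N40 RNA pool, round 2. 6-mer enrichment z-score normalised to GST SELEX. RNA written as DNA (T = U).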

IMP3 full-length = IMP3 full-length (UniProt O00425); conditions: construct: FL IMP3 (1-579); SELEX round: R4
Procedure: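 SELEX-seq with GST-tagged full-length IMP3 and an N40 RNA pool, round 4. Each 6-mer is scored as an enrichment z-score of sequence tags containing it, normalised to the matching GST SELEX round. RNA written as DNA (T = U).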

IMP3 KH1-2 = conditions: construct: KH1-2 (164-376); SELEX round: R4
Procedure: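 SELEX-seq with GST-tagged IMP3 KH1-2 (Pro164-Phe376) and an N40 RNA pool, round 4 (stringent 300/600 mM KCl washes). 6-mer z-score of sequence-tag enrichment normalised to the corresponding GST SELEX round; RNA k-mers written as DNA (T for U).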

IMP3 KH1-4 = conditions: construct: KH1-4 (164-579); SELEX round: R4
Procedure: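 SELEX-seq with GST-tagged IMP3 KH1-4 (Pro164-Lys579) and an N40 RNA pool, round 4. 6-mer z-score of sequence-tag enrichment normalised to the corresponding GST SELEX round; RNA k-mers written as DNA (T for U).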

IMP3 KH3-4 = conditions: construct: KH3-4 (377-579); SELEX round: R4
Procedure: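 SELEX-seq with GST-tagged IMP3 KH3-4 (Pro377-Lys579) and an N40 RNA pool, round 4. 6-mer z-score of sequence-tag enrichment normalised to the corresponding GST SELEX round; RNA k-mers written as DNA (T for U).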

IMP3 RRM1-2, sequence (chain, as listed by the source): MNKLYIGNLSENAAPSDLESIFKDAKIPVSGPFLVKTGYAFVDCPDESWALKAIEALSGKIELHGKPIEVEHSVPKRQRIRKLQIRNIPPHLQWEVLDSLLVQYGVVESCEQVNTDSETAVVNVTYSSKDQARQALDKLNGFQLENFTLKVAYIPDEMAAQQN
IMP3 KH1-4, sequence (chain, as listed by the source): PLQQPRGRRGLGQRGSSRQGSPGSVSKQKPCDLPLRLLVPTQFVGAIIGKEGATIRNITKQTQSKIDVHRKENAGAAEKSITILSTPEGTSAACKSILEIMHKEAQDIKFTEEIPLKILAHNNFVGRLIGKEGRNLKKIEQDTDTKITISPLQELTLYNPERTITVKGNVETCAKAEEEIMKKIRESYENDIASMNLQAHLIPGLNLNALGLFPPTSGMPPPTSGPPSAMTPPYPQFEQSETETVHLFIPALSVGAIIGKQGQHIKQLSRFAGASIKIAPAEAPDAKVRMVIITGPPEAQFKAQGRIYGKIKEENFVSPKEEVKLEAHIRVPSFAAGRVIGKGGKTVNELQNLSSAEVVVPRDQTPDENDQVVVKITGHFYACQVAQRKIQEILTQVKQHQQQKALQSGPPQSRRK
UniProt O00425, sequence (O00425 whole entry): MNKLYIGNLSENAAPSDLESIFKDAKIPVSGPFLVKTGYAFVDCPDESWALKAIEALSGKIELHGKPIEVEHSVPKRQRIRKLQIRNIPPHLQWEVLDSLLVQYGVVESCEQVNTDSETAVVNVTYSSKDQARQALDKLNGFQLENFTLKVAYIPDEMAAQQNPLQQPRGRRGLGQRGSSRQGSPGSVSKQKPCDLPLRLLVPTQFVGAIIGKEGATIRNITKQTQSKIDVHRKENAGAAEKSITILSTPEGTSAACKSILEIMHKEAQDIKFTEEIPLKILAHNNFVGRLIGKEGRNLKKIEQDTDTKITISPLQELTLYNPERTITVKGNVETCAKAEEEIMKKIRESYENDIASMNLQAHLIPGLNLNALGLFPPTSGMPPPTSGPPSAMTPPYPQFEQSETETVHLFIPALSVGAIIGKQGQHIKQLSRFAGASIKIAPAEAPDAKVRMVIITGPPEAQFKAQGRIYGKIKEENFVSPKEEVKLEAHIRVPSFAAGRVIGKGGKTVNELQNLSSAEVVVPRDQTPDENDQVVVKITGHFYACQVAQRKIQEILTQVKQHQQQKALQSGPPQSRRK
IMP3 KH3-4, sequence (chain, as listed by the source): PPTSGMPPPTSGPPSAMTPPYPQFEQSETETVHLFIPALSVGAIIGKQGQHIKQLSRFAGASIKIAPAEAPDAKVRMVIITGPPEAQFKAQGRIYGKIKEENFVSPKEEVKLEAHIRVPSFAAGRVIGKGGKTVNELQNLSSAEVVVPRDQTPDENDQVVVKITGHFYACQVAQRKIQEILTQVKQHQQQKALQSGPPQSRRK
IMP3 KH1-2, sequence (chain, as listed by the source): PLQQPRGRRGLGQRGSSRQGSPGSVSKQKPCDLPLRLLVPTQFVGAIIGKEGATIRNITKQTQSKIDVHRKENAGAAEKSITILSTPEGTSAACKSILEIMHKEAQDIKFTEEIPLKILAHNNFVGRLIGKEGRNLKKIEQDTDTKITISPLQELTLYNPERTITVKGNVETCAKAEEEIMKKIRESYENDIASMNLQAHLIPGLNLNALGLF

Row | Sequence | 6-mer SELEX enrichment z-score (IMP3 RRM1-2) | 6-mer SELEX enrichment z-score (IMP3 full-length) | 6-mer SELEX enrichment z-score (IMP3 KH1-2) | 6-mer SELEX enrichment z-score (IMP3 KH1-4) | 6-mer SELEX enrichment z-score (IMP3 KH3-4)
1 | GCTATT | 0.371 | 0.093 | 0.346 |  | 
2 | ACATAA | 1.54 | 2.24 |  |  | 
3 | AGCAAT |  |  | -0.043 | -0.083 | 0.064
4 | TCTCAC |  |  | 0.14 | 0.043 | -0.356
5 | GGCCTA | -0.156 | 0.174 | 0.057 |  | 
6 | AGAGCC | -0.896 | -0.503 | -1.27 |  | 
7 | CACAGT | 1.22 | 1.77 | 0.748 |  | 
8 | CTAAGC | -0.061 | -0.756 | -0.829 |  | -0.865
9 | CATTCA |  |  | 2.08 | 1.92 | 1.27
10 | AGTGTT | 0.201 | -0.3 |  |  | 
11 | TAACCG | -0.971 | -0.819 | -0.363 |  | 
12 | ATAATA | -0.306 | 0.458 | 2.37 |  | 
13 | CAGCCC | -0.06 | 0.087 | -0.268 |  | 
14 | AATACA | 0.771 | 1.72 |  |  | 
15 | TGAGCG | -0.425 | -3.62 |  |  | 
16 | AAACCC | -2.14 | -3.46 | -2.96 |  | -3.87
17 | GAGGAC | -0.59 | 0.124 | 0.438 |  | 
18 | CCGAAT | -1.12 | -0.994 |  |  | 
19 | TTACAC | 0.774 | 0.633 | 1.55 |  | 
20 | TCCATA | 0.422 | 0.545 | 1.06 |  | 
21 | GTACAT | 0.354 | 0.671 | 0.235 |  | 
22 | GGCTGA | 0.065 | 0.102 | -0.171 |  | -0.05
23 | GCCTTC |  |  | 0.043 | 0.004 | -0.236
24 | TGGCAG | 0.342 | 0.971 | 0.558 |  | 0.625
25 | GAGTCT | 0.139 | 0.162 | -0.19 |  | -0.028
26 | GAATCC | -0.994 | -1.06 | -0.777 |  | -1.01
27 | GCGAAC | -0.384 | -0.232 | -1.37 |  | -1.43
28 | ATGTGC | 0.047 | -0.106 | 0.24 |  | 0.403
29 | GAGTTT | 0.22 | -0.185 | -0.204 |  | 0.07
